Structures can show the parent of a compound that is named as a salt. The name of at least one read-out is uncertain.
System: energy expenditure of mice
Test: Effect on energy expenditure and food intake of mice
Assay type: in vivo, Female CFLP mice
Conditions: % of mice dosed with water (control 100), 5 8.9, 7 16.9, 8 20.3, 9 18.8, 10 17.0, 11 19.3, 12 20.9, 13 24.8, 14 17.0, 16 19.3, 17 20.9, 18 18.6, 19 17.5, 20 19.4, 21 23.6, 22 20.5, 23 19.8, 25 19.5; for Mean Energy Expenditure 0-3 h: mg/kg po by Example: 4 23.3; for Mean Energy Expenditure 0-21 h / Mean Food Intake: mg/kg po by Example: 1 26.1, 2 17.0, 3 19.0, 4 23.3; for Mean Food Intake: 21 hours

SMILES | Mean Energy Expenditure 0-3 h | Mean Energy Expenditure 0-21 h | Mean Food Intake
COc1ccc(CC(C)NCC(O)c2cccc(Cl)c2)cc1OC (stereo not shown) [Example 19, N-[2-(3,4-Dimethoxyphenyl)-1-methylethyl]-2-hydroxy-2-(3-chlorophenyl)ethanamine] | 169% | 125% | 71%
COc1ccc(CC(C)NCC(O)c2cccc(Br)c2)cc1 (stereo not shown) [Example 8, N-[2-(4-Methoxyphenyl)-1-methylethyl]-2-hydroxy-2-(3-bromophenyl)ethanamine] | 161% | 138% | 94%
COc1ccc(CC(C)NCC(O)c2cccc(Cl)c2)cc1 (stereo not shown) [Example 5, N-[2-(4-Methoxyphenyl)-1-methylethyl]-2-hydroxy-2-(3-chlorophenyl)ethanamine] | 133% | 108% | 78%
CC(Cc1ccc(OCCc2ccccc2)cc1)NCC(O)c1cccc(Cl)c1 (stereo not shown) [Example 22, N-[2-(4-{2-phenylethoxy}phenyl)-1-methylethyl]-2-hydroxy-2-(3-chlorophenyl)ethanamine] | 127% | 107% | 88%
CCCCCCCCCCOc1ccc(CC(C)NCC(O)c2cccc(Cl)c2)cc1 (stereo not shown) [Example 13, N-[2-(4-^n Decyloxyphenyl)-1-methylethyl]-2-hydroxy-2-(3-chlorophenyl)ethanamine] | 139% | 117% | 89%
COc1ccc(C[C@H](C)NC[C@H](O)c2cccc(Cl)c2)cc1OC (relative stereo) [Example 20, N-[2-(3,4-Dimethoxyphenyl)-1-methylethyl]-2-hydroxy-2-(3-chlorophenyl)ethanamine-(RS,SR) diastereoisomer] | 168% | 130% | 108%
CC(Cc1ccc(OCc2ccccc2)cc1)NCC(O)c1cccc(Cl)c1 (stereo not shown) [Example 1, N-[2-(4-Benzyloxyphenyl)-1-methylethyl]-2-hydroxy-2-(3-chlorophenyl)ethanamine] | – | 129% | 98%
CC(Cc1ccc(OC2CCCCC2)cc1)NCC(O)c1cccc(Cl)c1.Cl (stereo not shown) [Example 21, N-[2-(4-Cyclohexyloxyphenyl)-1-methylethyl]-2-hydroxy-2-[3-chlorophenyl)ethanamine hydrochloride] | 134% | 109% | 83%
COc1ccc(CCNCC(O)c2cccc(Cl)c2)cc1 (stereo not shown) [Example 14, N-[2-(4-Methoxyphenyl)ethyl]-2-hydroxy-2-(3-chlorophenyl)ethanamine] | – | 116% | –
CC(Cc1ccc(OC(C)C)cc1)NCC(O)c1cccc(Cl)c1 (stereo not shown) [Example 11, N-[2-(4-Isopropoxyphenyl)-1-methylethyl]-2-hydroxy-2-(3-chlorophenyl)ethanamine] | 165% | 122% | 59%
COc1ccc(CC(C)NCC(O)c2cccc(Cl)c2)cc1C (stereo not shown) [Example 18, N-[2-(4-methoxy-3-methylphenyl)-1-methylethyl]-2-hydroxy-2-(3-chlorophenyl)ethanamine] | 141% | 115% | 94%
COc1ccc(CC(C)NCC(O)c2cccc(Cl)c2F)cc1 (stereo not shown) [Example 9, N-[2-(4-Methoxyphenyl)-1-methylethyl]-2-hydroxy-2-(3-chloro-2-fluorophenyl)ethanamine] | 151% | 127% | 89%
CC(Cc1ccc(O)cc1)NCC(O)c1cccc(Cl)c1 (stereo not shown) [Example 2, N-[2-(4-Hydroxyphenyl)-1-methylethyl]-2-hydroxy-2-(3-chlorophenyl)ethanamine] | – | 120% | 97%
COc1ccc(C[C@@H](C)NCC(O)c2cccc(Cl)c2)cc1F (stereo partly drawn) [Example 17, N-[2-(3-Fluoro-4-methoxyphenyl)-1-(R)-1-methylethyl]-2-(R,S)-2-hydroxy-2-(3-chlorophenyl)ethanamine hydrobromide] | 150% | 114% | 87%
COc1c(F)cc(CC(C)NCC(O)c2cccc(Cl)c2)cc1F.Cl (stereo not shown) [Example 25, N-[2-(3,5-Difluoro-4-methoxyphenyl)-1-methylethyl]-2-hydroxy-2-(3-chlorophenyl)ethanamine hydrochloride] | 150% | 119% | 95%
CCCCCOc1ccc(CC(C)NCC(O)c2cccc(Cl)c2)cc1 (stereo not shown) [Example 12, N-[2-(4-^n Pentyloxyphenyl)-1-methylethyl]-2-hydroxy-2-(3-chlorophenyl)ethanamine] | 146% | 128% | 85%
COc1ccc(CC(C)NCC(O)c2cccc(Cl)c2)cc1F (stereo not shown) [Example 3, N-[2-(3-Fluoro-4-methoxyphenyl)-1-methylethyl]-2-hydroxy-2-(3-chlorophenyl)ethanamine] | – | 115% | 77%
COc1ccc(C[C@@H](C)NC[C@H](O)c2cccc(Cl)c2)cc1F (relative stereo) [Example 4, N-[2-(3-Fluoro-4-methoxyphenyl)-1-methylethyl]-2-hydroxy-2-(3-chlorophenyl)ethanamine hydrobromide-(RR,SS) diastereoisomer] | 145% | 115% | 81%
COc1cccc(CC(C)NCC(O)c2cccc(Cl)c2)c1.Cl (stereo not shown) [Example 23, N-[2-(3-Methoxyphenyl)-1-methylethyl]-2-hydroxy-2-(3-chlorophenyl)ethanamine hydrochloride] | 142% | 116% | 103%
COc1ccc(CC(C)NCC(O)c2cccc(F)c2)cc1 (stereo not shown) [Example 7, N-[2-(4-Methoxyphenyl)-1-methylethyl]-2-hydroxy-2-(3-fluorophenyl)ethanamine] | 141% | 108% | 89%

From patent publication US4622342A, “Secondary amines” (priority 1981, dated 1986)
